From PubChem BioAssay AID1030 (National Center for Advancing Translational Sciences (NCATS), 2008)
The campaign covered roughly 220,000 compounds. About 16,000 (7.3%) were called active. The inconclusive results got no clear call from the source; some entries with a clear call stand among them for comparison. The call rests on the fitted dose curve; in most records, active means well fitted inhibition curve with a large enough effect (not every such curve was filed as active); inconclusive means small, poorly fitted or top-dose-only effect, or another doubt; inactive means no such curve, though single readings can be large or run the other way. Potencies of inconclusive entries are left out as doubtful fits.

Biological target: Aldehyde dehydrogenase 1A1 (Homo sapiens) (UniProt P00352)
Experiment: qHTS Assay for Inhibitors of Aldehyde Dehydrogenase 1 (ALDH1A1);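 on activity, negative = inhibition: plate controls were no enzyme wells and a reference inhibitor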
Conditions: Purified ALDH1A1, NADH fluorescence, propionaldehyde substrate; series mostly up to 75.3 µM; activity, negative = inhibition: at the top concentration
Potency means the concentration at half of the fitted maximal effect; tags describe the fitted curve by direction and shape.

Chain of UniProt P00352 (P00352 whole entry, looked up): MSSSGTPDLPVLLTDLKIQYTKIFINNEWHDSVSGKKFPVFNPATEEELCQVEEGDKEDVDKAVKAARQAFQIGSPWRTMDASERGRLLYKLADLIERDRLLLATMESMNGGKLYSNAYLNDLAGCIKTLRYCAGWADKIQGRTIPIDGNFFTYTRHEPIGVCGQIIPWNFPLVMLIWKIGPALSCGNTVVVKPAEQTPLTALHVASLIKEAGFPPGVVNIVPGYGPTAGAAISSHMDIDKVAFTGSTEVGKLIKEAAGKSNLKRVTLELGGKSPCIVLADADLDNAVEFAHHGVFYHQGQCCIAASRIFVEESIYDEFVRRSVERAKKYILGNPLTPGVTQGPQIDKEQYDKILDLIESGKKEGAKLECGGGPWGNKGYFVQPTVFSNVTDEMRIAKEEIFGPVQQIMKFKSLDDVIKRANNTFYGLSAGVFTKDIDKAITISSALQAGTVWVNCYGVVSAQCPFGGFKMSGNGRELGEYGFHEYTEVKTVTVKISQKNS

Compound	Potency	activity, negative = inhibition
CCOC(=O)Cn1c(N2CCCCCC2)nc2c1c(=O)[nH]c(=O)n2C	inconclusive [inhibitor, single point]	
Cc1ccc(CN2CCN(/N=C/C=C/c3ccccc3[N+](=O)[O-])CC2)cc1	active: 6.31 µM	
COC(=O)Cc1ccc(NC(=O)c2ccccc2Br)cc1		inactive: -3.1%
COc1cc(/C=N/NC(=O)Cc2csc(C)n2)ccc1OCC(C)C		inactive: -5.37%
S=c1nc(-c2ccccc2)c(-c2ccccc2)n[nH]1	active: 0.316 µM	
CCN1C(=O)/C(=C/c2cc(C)n(C)c2C)SC1=Nc1ccc(OC)cc1	active: 1.26 µM	
COc1ccc(-c2cc(-n3c(C(F)(F)F)nc4ccccc43)n(CCC#N)n2)cc1	inconclusive [inhibitor, partial curve]	
COCCN(C(=O)Nc1ccc(OC)cc1OC)C1CCN(C(C)C)CC1	inconclusive [inhibitor, single point]	
Cc1ccc(N(CC(=O)NCc2cccs2)S(=O)(=O)c2cccs2)cc1	inconclusive [inhibitor, full curve]	
CCCc1cc(C(N)=O)c(NC(C)=O)s1	inconclusive [inhibitor, single point]	
Cc1cc(/C=C(\C#N)C(=O)OCC(=O)NC(=O)NC(C)(C)C)c(C)n1CCC(C)C	inconclusive [inhibitor, partial curve]	
Cn1c(Cl)c(C(=O)Nc2ccc(Cl)cc2)c2ccccc21		inactive: 7.87%
CC1CN(c2ccc([N+](=O)[O-])cc2C#N)CC(C)O1 (stereo not drawn)	active: 14.1 µM	
COC(=O)c1nc2nc(C)cc(=O)n2[nH]1	inconclusive [inhibitor, single point]	
Fc1ccccc1NC(=S)N1CCN(Cc2ccccc2)CC1	inconclusive [inhibitor, single point]	
O=C(CC1C(=O)OCC2CCCCN21)Nc1ccccc1C(F)(F)F (stereo not drawn)	inconclusive [inhibitor, single point]	
COCCn1c(=O)[nH]c2cc(C(=O)OC)ccc2c1=O	inconclusive [inhibitor, partial curve]	
S=C(Nc1cccc(Cl)c1)Nc1ccccc1Oc1ccccc1	inconclusive [inhibitor, single point]	
O=C(CN1C(=O)C2C3CCC(C3)C2C1=O)Oc1ccc2ccccc2c1 (stereo not drawn)	inconclusive [inhibitor, single point]	
CC(C)CCC(C(=O)O)C(C)CC(=O)NNC(=O)c1ccco1 (stereo not drawn)		inactive: -0.828%
Cc1csc(NC(=O)/C=C/c2ccco2)n1		inactive: -1.54%
O=c1[nH]c(=S)[nH]c2sccc12	inconclusive [inhibitor, single point]	
O=C(NCc1ccco1)c1cc(-c2ccccc2)c(N2CCOCC2)s1	inconclusive [inhibitor, single point]	
COc1ccc(-n2c(=O)cnc3cnc(N(C)C)nc32)cc1	inconclusive [inhibitor, single point]	

Compound	Potency	activity, negative = inhibition
Cn1c(NCc2ccccc2O)nc2ccccc21	inconclusive [inhibitor, single point]	
COc1cccc(CNC(C)C(=O)Nc2ccc3c(c2)OCCO3)c1 (stereo not drawn)	inconclusive [inhibitor, single point]	
O=c1c(-c2ccc(F)cc2)nc2cnc(N3CCNCC3)nc2n1Cc1ccc(F)cc1	inconclusive [inhibitor, partial curve]	
Cc1csc(NC(=O)c2cc(-c3ccco3)nc3ccccc23)n1	inconclusive [inhibitor, partial curve]	
CC1CCCN(C(=O)C23CCC(C)(C(=O)C2)C3(C)C)C1 (stereo not drawn)	inconclusive [inhibitor, partial curve]	
OCCC1CN(Cc2ccon2)CCN1Cc1ccc(F)c(F)c1 (stereo not drawn)		inactive: -1.17%
Cc1cccc(NN=C2c3ccccc3-c3ccccc32)c1	inconclusive [inhibitor, single point]	
CCOc1ccccc1NC(=O)C(OC(=O)c1ccc(CC)cc1)c1ccccc1 (stereo not drawn)	inconclusive [inhibitor, partial curve]	
Cc1nc2c(sc3nc(N4CCOCC4)c4c(c32)CC(C)(C)OC4)c(-c2ccccc2)c1C(=O)O	inconclusive [inhibitor, single point]	
COc1ccc(C(=O)Nc2ccccc2)cc1[N+](=O)[O-]	active: 20 µM	
COc1ccc(CCNC(=O)CSCc2ccc([N+](=O)[O-])cc2)cc1OC	inconclusive [inhibitor, single point]	
Cn1c(-c2ccc(Br)o2)nc2ccccc21	inconclusive [inhibitor, single point]	
Cc1ccsc1CN1CCN(c2ccccn2)CC1	inconclusive [inhibitor, single point]	
CC(=O)/C(C#N)=C1\NC(=O)C(Cc2ccc(C)c(C)c2)S1 (stereo not drawn)		inactive: -10.3%
COc1ccc(N(C)S(=O)(=O)c2cccc(C(=O)NC3=NCCS3)c2)cc1	inconclusive [inhibitor, single point]	
O=C(c1ccc2c(c1)OCO2)N(c1ccc(F)cc1)C1C=CS(=O)(=O)C1 (stereo not drawn)	inconclusive [inhibitor, single point]	
Cn1nnc2cc(C(=O)NCCC3=CCCCC3)ccc21		inactive: -7.74%
CCCOc1nnnn1-c1ccccc1	inconclusive [inhibitor, partial curve]	
COc1ccc(CNC(=O)c2cc(-c3ccccc3OC)on2)cc1		inactive: 0.85%
Cc1nc(N)sc1-c1csc(N(C)c2ccc(O)cc2)n1	active: 14.1 µM	
O=C(CSc1nnc(-c2ccccc2Cl)o1)N1CCCCC1	inconclusive [inhibitor, single point]	
O=C(NC(c1ccccc1)c1ccccc1)c1ccc(Br)o1	active: 0.794 µM	
Cc1cc(Nc2cccc(F)c2)nc(NCc2ccccc2)n1		inactive: -5.44%
O=S(=O)(Nc1ccc(Br)cn1)c1cccs1	inconclusive [inhibitor, single point]	
